According to PubChem BioAssay AID1457 (National Center for Advancing Translational Sciences (NCATS), 2008):
The whole screen tested about 210,000 compounds, of which about 730 (0.35%) were called active. Inconclusive means that the source gave no clear call. Such entries were picked first, then a sample of the others. Calls follow the shape of the dose curve; as a rule, active = well fitted inhibition curve with a large enough effect; inconclusive = small, poorly fitted or top-dose-only effect; inactive = no such curve, though single readings can be large or run the other way. Potencies of inconclusive entries are doubtful fits and often do not repeat.
Potency is read from the fitted curve at half-maximal effect.

Test: qHTS Assay for Identifying the Cell-Membrane Permeable IMPase Inhibitors: Potentiation with Lithium; also: nearly all actives have a fitted effect of over 50% in size;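 as to activity, negative = IMPase inhibition: plate controls were basal vehicle for no effect and high inhibitor control for full effect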
Settings: CHO-M1 cells, IP1 TR-FRET (IP-One), carbachol + lithium; series mostly up to 59.4 µM; activity, negative = IMPase inhibition: at the top concentration
Procedure, shortened: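 Readout is a homogeneous TR-FRET IP1 immunoassay (Ex 320, Em 665 and 620), where raised cytosolic IP1 lowers signal. Cells were CHO-M1 treated 30 min at 37C with test compounds plus a little lithium; AC50 values came from Hill-equation fitting.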
With COC(=O)C1OC2(OC1C(=O)OC)c1ccccc1-c1ccccc12 (stereo not given) the Potency was inconclusive: 11.2 µM [inhibitor, partial curve]. In the case of COc1ccccc1NS(=O)(=O)c1cc(NC(=O)c2sc3cc(Cl)ccc3c2Cl)ccc1C, the Potency is reported as inconclusive: 28.2 µM [inhibitor, single point]. In the case of COc1ccc2nc(C)cc(SCC(=O)NNC(=O)COc3ccc(C)cc3)c2c1, the Potency is reported as inconclusive: 14.1 µM [inhibitor, single point]. In the case of O=c1[nH]n(-c2ccccc2)c(=O)c2ccccc12, the Potency is reported as inconclusive: 22.4 µM [inhibitor, single point]. In the case of O=C(Nc1cccc(O)c1)c1cc2nc(-c3ccccc3)cc(-c3ccccc3)n2n1, the Potency is reported as inconclusive: 28.2 µM [inhibitor, single point]. In the case of CC(=O)Nc1nc(Cn2nnc(-c3ccc4c(c3)OCO4)n2)nc(N(C)C)n1, the Potency is reported as inconclusive: 20 µM [inhibitor, single point]. For COc1cccc(-c2csc(N3CCN(CC(=O)NNC(=O)c4ccc(Br)cc4)CC3)n2)c1, the Potency was inconclusive: 28.2 µM [inhibitor, single point]. In the case of Cc1nc(N)ncc1Sc1ccc(Cl)cc1, the Potency is reported as inconclusive: 25.1 µM [inhibitor, single point]. With Cc1ccc(-c2csc3ncnc(Sc4nnc(CN5CCCCCC5=O)o4)c23)cc1 the “activity, negative = IMPase inhibition” value was inactive: 15.4% [at 38.3 µM]. With COCc1cc(C)nc(SCC(=O)Nc2cccc(C)c2)c1C#N the Potency was active: 22.4 µM. In the case of Cc1ccc(Oc2nccc(-c3ccc(Cl)cc3)n2)cc1, the Potency is reported as inconclusive: 28.2 µM [inhibitor, single point]. For CC1=CC2C(=O)c3cccc(O)c3C(=O)C2C(O)=C1 (stereo not given), the “activity, negative = IMPase inhibition” value was inactive: 17%. For COC(=O)c1sccc1NC(=O)C1CC=CCC1C(=O)O (stereo not given), the Potency was active: 10 µM. For CC(C)(C)c1nnc2sc(SC/C(O)=C(\C#N)c3nc4ccccc4[nH]3)nn2c1=O, the Potency was active: 12.6 µM. With Cc1oc2cc(OCc3cnn(-c4ccccc4)c3)ccc2c(=O)c1Oc1ccccc1F the “activity, negative = IMPase inhibition” value was inactive: 2.58%. In the case of O=C(Nc1ccccc1)c1ccc(OC(=O)c2cc3ccccc3o2)cc1, the Potency is reported as inconclusive: 28.2 µM [inhibitor, single point]. In the case of COCCCNC(=O)c1ccccc1Oc1ccccc1, the “activity, negative = IMPase inhibition” value is reported as inactive: -8.56% [at 38.3 µM]. For CCc1c(C)c2cc(Cl)c(O)c(CN(CC)CC)c2oc1=O, the Potency was inconclusive: 11.2 µM [inhibitor, partial curve]. For N#Cc1ccc(-c2ccco2)nc1SCC(=O)c1ccc(Cl)cc1, the “activity, negative = IMPase inhibition” value was inactive: -0.766% [at 38.3 µM]. In the case of C=CCC(c1ccccc1)N(C(C)=O)c1ccco1 (stereo not given), the “activity, negative = IMPase inhibition” value is reported as inactive: 17.7%. With CC1=C(C(=O)Nc2ccc(Cl)cc2)C(c2cccs2)n2nnnc2N1 (stereo not given) the “activity, negative = IMPase inhibition” value was inactive: -3.34% [at 38.3 µM]. For NC(=O)Nc1ccc(Oc2ncc(C(F)(F)F)cc2Cl)cc1, the Potency was inconclusive: 3.16 µM [inhibitor, single point]. For S=c1[nH]nc(-c2cc3c(s2)-c2ccccc2CC3)o1, the Potency was inconclusive: 10 µM [inhibitor, partial curve]. For C(=N\N=C\c1cccs1)/c1cccs1, the Potency was inconclusive: 5.62 µM [inhibitor, full curve, poor fit]. For N#Cc1c(-c2ccccc2)nc(SCC(=O)Nc2ccccc2F)[nH]c1=O, the Potency was active: 10 µM. With O=C(CN1C(=O)C(=O)c2ccccc21)OCN1C(=O)c2ccccc2C1=O the “activity, negative = IMPase inhibition” value was inactive: 13.4%. In the case of CCN(CC)S(=O)(=O)c1ccc(OC)c(NC(=O)COc2ccc3c(C)cc(=O)oc3c2)c1, the Potency is reported as active: 6.31 µM. For COc1ccccc1CNC(=O)COC(=O)c1cccnc1SCC(=O)NCc1ccccc1OC, the Potency was inconclusive: 28.2 µM [inhibitor, single point]. For COc1ccccc1NC(=O)c1sc2ncn(Cc3cccc(C)c3)c(=O)c2c1C, the Potency was inconclusive: 25.1 µM [inhibitor, single point]. With N#Cc1c(-c2cccs2)cc(C2CC2)nc1SCC(N)=O the Potency was inconclusive: 12.6 µM [inhibitor, single point]. For O=[N+]([O-])c1ccc(O)c(/C=N/Nc2ccc(Cl)nn2)c1, the “activity, negative = IMPase inhibition” value was inactive: 3.46% [at 38.3 µM]. With Nc1c(C(=O)Nc2ccccc2F)sc2nc(-c3ccco3)ccc12 the Potency was inconclusive: 6.31 µM [inhibitor, partial curve]. In the case of CCc1nnc(NC(=O)CSc2nc3c(cc2C#N)CCCC3)s1, the Potency is reported as inconclusive: 12.6 µM [inhibitor, single point]. For CCCCCCCCCCCCCCCC(=O)C1=C(O)C(CO)OC1=O (stereo not given), the “activity, negative = IMPase inhibition” value was inactive: 24.3%. For S=c1[nH]ncn1NCc1ccc(Cl)cc1Cl, the “activity, negative = IMPase inhibition” value was inactive: 9.23%. In the case of Cc1cc(N2C(=O)C(O)=C(C(=O)c3ccc(C)o3)C2c2cccs2)no1 (stereo not given), the Potency is reported as active: 10 µM. For Cc1ccc(C)c(S(=O)(=O)NC(C)C(=O)Nc2ccc(-c3nc4ccccc4s3)cc2)c1 (stereo not given), the Potency was inconclusive: 12.6 µM [inhibitor, single point]. In the case of Cc1cccc(NC(=O)c2ccc(N3CCCCC3)c([N+](=O)[O-])c2)n1, the “activity, negative = IMPase inhibition” value is reported as inactive: 10.7% [at 38.3 µM]. With Cc1cc(CNC(=O)Cn2nc(C)c([N+](=O)[O-])c2C)c2ccccc2n1 the Potency was inconclusive: 3.16 µM [inhibitor, full curve, poor fit]. For CCOC(=O)c1cnn(-c2nc(SC)nc3sc4c(c23)CCC4)c1N, the Potency was inconclusive: 14.1 µM [inhibitor, single point]. In the case of Cc1ccc(NC(=O)c2ccco2)c([N+](=O)[O-])c1, the “activity, negative = IMPase inhibition” value is reported as inactive: -0.863%. For COc1ccc(C(=O)CSc2nnc(-c3cccs3)n2-c2ccccc2)cc1, the Potency was inconclusive: 8.91 µM [inhibitor, partial curve, poor fit]. For CCOC(=O)c1cc(C)sc1NC(=O)C(c1ccccc1)c1ccccc1, the “activity, negative = IMPase inhibition” value was inactive: -8.92%. In the case of CN(C)c1ccc(/C=C2\C(=O)Nc3ccccc32)cc1, the Potency is reported as “inactive”. With Cn1nc(-c2ccc(OCC(=O)NCC3CCCO3)cc2)c2ccccc2c1=O (stereo not given) the Potency was inconclusive: 11.2 µM [inhibitor, single point]. In the case of COc1ccc(CNC(=O)C2CSC(c3ccc(OC)cc3)N2C(C)=O)cc1 (stereo not given), the Potency is reported as inconclusive: 11.2 µM [inhibitor, partial curve, poor fit]. With CCOC(=O)CSc1nc2cc(OCC)ccc2cc1C#N the Potency was inconclusive: 28.2 µM [inhibitor, single point]. In the case of O=C(NCc1ccco1)O[C@@H]1C(=O)c2cc(Br)ccc2O[C@H]1c1ccc2c(c1)OCO2, the “activity, negative = IMPase inhibition” value is reported as inactive: 7.71%. For CCCCNS(=O)(=O)c1ccc2nc(-c3cccnc3)cc(C(=O)NCCCOCC)c2c1, the Potency was active: 11.2 µM. In the case of Cc1noc(C)c1-c1ccc2ncnc(Nc3ccccc3)c2c1, the “activity, negative = IMPase inhibition” value is reported as inactive: -3.97%. In the case of Cc1cccc(C(=O)Nc2nnc(-c3ccc(C(C)(C)C)cc3)s2)c1, the Potency is reported as inconclusive: 28.2 µM [inhibitor, single point]. With CCN(CC)C(=O)c1sc2nc(-c3cccs3)cc(-c3ccc(Cl)cc3)c2c1N the Potency was inconclusive: 28.2 µM [inhibitor, partial curve]. In the case of CCOCC(=O)Nc1cc(-c2cn3cccnc3n2)ccc1C, the Potency is reported as inconclusive: 17.8 µM [inhibitor, partial curve, poor fit]. In the case of Cc1c(C(=O)O)sc2ncnc(N3CCCCC3C)c12 (stereo not given), the Potency is reported as active: 5.62 µM. With Cc1cccc(CNc2nc(-c3cccnc3)nc3ccccc23)c1 the “activity, negative = IMPase inhibition” value was inactive: 22.2%. With Cc1ccc(S(=O)(=O)N2CCN(Cc3nc4sc(C)c(C)c4c(=O)[nH]3)CC2)cc1 the Potency was inconclusive: 17.8 µM [inhibitor, single point]. In the case of CNc1ncncc1-c1ccccc1CN(C)C, the “activity, negative = IMPase inhibition” value is reported as inactive: 23.2%. For Cc1ccc(-c2cc(C(=O)NC3=NCCS3)c3cc(Br)ccc3n2)o1, the Potency was inconclusive: 10 µM [inhibitor, single point]. In the case of COCCn1c(=O)c(-c2ccc(Cl)cc2)nc2cnc(Oc3ccc(OC)cc3)nc21, the “activity, negative = IMPase inhibition” value is reported as inactive: 4.42%. For N#Cc1ccccc1-c1ccc2ncnc(NCc3cccs3)c2c1, the Potency was inconclusive: 14.1 µM [inhibitor, single point]. With CCc1c(C)sc(NC(=O)c2cc(CC(C)C)on2)c1C#N the “activity, negative = IMPase inhibition” value was inactive: -0.632% [at 38.3 µM]. For CCOC(=O)c1cnc(SC)nc1Oc1cccc(NC(=O)c2cccc(Cl)c2Cl)c1, the Potency was inconclusive: 28.2 µM [inhibitor, single point]. For O=C(NCc1cccs1)c1ccccc1, the “activity, negative = IMPase inhibition” value was inactive: -1.53% [at 38.3 µM]. For CCn1cc(Cl)c(C(=O)NNC(=O)CCn2nc(C)c([N+](=O)[O-])c2C)n1, the “activity, negative = IMPase inhibition” value was inactive: 2.61%. In the case of Cc1noc(C)c1C(=O)OCC(=O)Nc1ccc(C(N)=O)cc1, the Potency is reported as inconclusive: 3.16 µM [inhibitor, single point]. With COc1ccc(C(=O)N=c2sc3ccccc3n2C)cc1 the Potency was inconclusive: 22.4 µM [inhibitor, single point]. For CCS(=O)(=O)Nc1ccc(-c2nnc(SCC(=O)c3cccc(OC)c3)o2)cc1, the Potency was inconclusive: 7.94 µM [inhibitor, partial curve, poor fit]. With O=C1OCCN1C(=O)[C@H]1[C@H](c2ccc(F)cc2)C(c2ccccc2)=NN1c1ccc(Br)cc1 the “activity, negative = IMPase inhibition” value was inactive: 0.301%. For O=C(N/N=C/c1ccsc1)c1cc(-c2cccs2)nc2ccccc12, the “activity, negative = IMPase inhibition” value was inactive: 0.801%. With c1ccc(CN2CCN(C(c3ccccc3)c3nnnn3Cc3ccccc3)CC2)cc1 (stereo not given) the “activity, negative = IMPase inhibition” value was inactive: 17%. In the case of COCCCNCC#CCOc1ccc(OC)cc1, the “activity, negative = IMPase inhibition” value is reported as inactive: -4.78%. For CC(=O)c1ccc(OCc2cc(=O)n3ccsc3n2)cc1, the Potency was inconclusive: 28.2 µM [inhibitor, single point]. For COc1ccc(N2CCN(C(=O)c3oc4ccccc4c3C)CC2)cc1, the “activity, negative = IMPase inhibition” value was inactive: 12.5%. In the case of COc1ccc(C(=O)Cn2c(C(=O)/C=C/c3ccccc3)nc3ccccc32)cc1, the Potency is reported as inconclusive: 28.2 µM [inhibitor, single point]. In the case of CC(=O)Nc1ccc(-c2cc(-c3ccc(NC(C)=O)cc3)nc(-c3ccc(NC(C)=O)cc3)n2)cc1, the Potency is reported as inconclusive: 22.4 µM [inhibitor, single point].
